# Laboratory results published in the supplement of paper PMC12217912.
# This is one part of the list. Sequences were assembled here from the parent chain. Values near 0.05 are background.
# B1: TEV protease; numbered along this chain (parent)
# chain: MGESLFKGPRDYNPISSSICHLTNESDGHTTSLYGIGFGPFIITNKHLFRRNNGTLVVQSLHGVFKVKDTTTLQQHLVDGRDMIIIRMPKDFPPFPQKLKFREPQREERICLVTTNFQTKSMSSMVSDTSCTFPSGDGIFWKHWIQTKDGQCGSPLVSTRDGFIVGIHSASNFTNTNNYFTSVPKNFMELLTNQEAQQWVSGWRLNADSVLWGGHKVFMVKPEEPFQPVKEATQL
# Variants of: B1
# Assay: raw area under fraction-flipped curve 0-4 h after induction (AUC4h, not background-subtracted), DNA-recorder readout of cleavage of the substrate (dimensionless); higher = more cleavage of the substrate by the protease variant
# Conditions: temperature: 34 °C; time window: 0-4 h after rhamnose induction
# Experimental: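 In vivo DNA recorder in E. coli TOP10(DE3) ΔrhaA at 34 °C. Each TEVp single-site mutant (parent TEVp 0) is paired with a single-site variant of the 7-mer TEVs (canonical ENLYFQ|S). The substrate sits between flexible linkers in a Bxb1-sfGFP-TEVs-SsrA fusion, so cleavage stabilises Bxb1 and speeds flipping of a recombination array, read by NGS. The value is the raw area under the fraction-flipped curve over 0-4 h after rhamnose induction (AUC4h), with ≥20 reads per time point. It is not background-subtracted; inactive controls average about 0.047.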
# 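Further: Bxb1 expression induced with 0.2% (w/v) L-rhamnose at OD600 near 0.5, cultures sampled hourly, flipped fraction per protease–substrate barcode pair counted by paired-end Illumina sequencing.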
Variant,area with substrate ENLYFQA,area with substrate ENLYFQL,area with substrate ENLYFQS,area with substrate ENLYFQD,area with substrate ENLYFQN,area with substrate ENLYFQT,area with substrate ENLYFQY,area with substrate ENLYFQC,area with substrate ENLYFQF,area with substrate ENLYFQK
MGESLFKGPRDYNPISSSICHLTNESDGHTTSLYGIGFGPFIITNKHLFRRNNGTLVVQSLHGVFKVKDTTTLQQHLVDGRDMIIIRMPKDFPPFPQKLKFREPQREERICLVTTNFQTKSMSSMVSDTSCTFPSGDGIFWKHWIQTKDGQCGSPLVSTRDGFIVGIHSQSNFTNTNNYFTSVPKNFMELLTNQEAQQWVSGWRLNADSVLWGGHKVFMVKPEEPFQPVKEATQL [A170Q],0.0513,0.0404,0.06,–,–,–,–,–,–,–
MGESLFKGPRDYNPISSSICHLTNESDGHTTSLYGIGFGPFIITNKHLFRRNNGTLVVQSLHGVFKVKDTTTLQQHLVDGRDMIIIRMPKDFPPFPQKLKFREPQREERICLVTTNFQTKSMSSMVSDTSCTFPSGDGIFWKHWIQTKDGQCGSPLVSTRDGFIVGIHSRSNFTNTNNYFTSVPKNFMELLTNQEAQQWVSGWRLNADSVLWGGHKVFMVKPEEPFQPVKEATQL [A170R],0.061,0.0524,0.0483,0.0492,0.0612,0.0616,0.0578,–,–,–
MGESLFKGPRDYNPISSSICHLTNESDGHTTSLYGIGFGPFIITNKHLFRRNNGTLVVQSLHGVFKVKDTTTLQQHLVDGRDMIIIRMPKDFPPFPQKLKFREPQREERICLVTTNFQTKSMSSMVSDTSCTFPSGDGIFWKHWIQTKDGQCGSPLVSTRDGFIVGIHSSSNFTNTNNYFTSVPKNFMELLTNQEAQQWVSGWRLNADSVLWGGHKVFMVKPEEPFQPVKEATQL [A170S],0.0666,–,0.0613,–,–,0.0596,–,0.0706,0.0697,0.0601
MGESLFKGPRDYNPISSSICHLTNESDGHTTSLYGIGFGPFIITNKHLFRRNNGTLVVQSLHGVFKVKDTTTLQQHLVDGRDMIIIRMPKDFPPFPQKLKFREPQREERICLVTTNFQTKSMSSMVSDTSCTFPSGDGIFWKHWIQTKDGQCGSPLVSTRDGFIVGIHSAYNFTNTNNYFTSVPKNFMELLTNQEAQQWVSGWRLNADSVLWGGHKVFMVKPEEPFQPVKEATQL [S171Y],0.0574,0.0654,0.0616,–,0.0238,0.0594,–,0.0549,–,–
MGESLFKGPRDYNPISSSICHLTNESDGHTTSLYGIGFGPFIITNKHLFRRNNGTLVVQSLHGVFKVKDTTTLQQHLVDGRDMIIIRMPKDFPPFPQKLKFREPQREERICLVTTNFQTKSMSSMVSDTSCTFPSGDGIFWKHWIQTKDGQCGSPLVSTRDGFIVGIHSASHFTNTNNYFTSVPKNFMELLTNQEAQQWVSGWRLNADSVLWGGHKVFMVKPEEPFQPVKEATQL [N172H],0.0738,0.0542,0.0641,–,0.0635,0.0611,–,–,–,0.0377
MGESLFKGPRDYNPISSSICHLTNESDGHTTSLYGIGFGPFIITNKHLFRRNNGTLVVQSLHGVFKVKDTTTLQQHLVDGRDMIIIRMPKDFPPFPQKLKFREPQREERICLVTTNFQTKSMSSMVSDTSCTFPSGDGIFWKHWIQTKDGQCGSPLVSTRDGFIVGIHSASRFTNTNNYFTSVPKNFMELLTNQEAQQWVSGWRLNADSVLWGGHKVFMVKPEEPFQPVKEATQL [N172R],0.0538,–,0.0626,–,0.0568,0.0533,0.0703,0.0563,–,0.0535
MGESLFKGPRDYNPISSSICHLTNESDGHTTSLYGIGFGPFIITNKHLFRRNNGTLVVQSLHGVFKVKDTTTLQQHLVDGRDMIIIRMPKDFPPFPQKLKFREPQREERICLVTTNFQTKSMSSMVSDTSCTFPSGDGIFWKHWIQTKDGQCGSPLVSTRDGFIVGIHSASNFGNTNNYFTSVPKNFMELLTNQEAQQWVSGWRLNADSVLWGGHKVFMVKPEEPFQPVKEATQL [T174G],0.0996,0.0652,0.0845,0.0263,–,0.0657,–,–,–,0.0649
MGESLFKGPRDYNPISSSICHLTNESDGHTTSLYGIGFGPFIITNKHLFRRNNGTLVVQSLHGVFKVKDTTTLQQHLVDGRDMIIIRMPKDFPPFPQKLKFREPQREERICLVTTNFQTKSMSSMVSDTSCTFPSGDGIFWKHWIQTKDGQCGSPLVSTRDGFIVGIHSASNFTNQNNYFTSVPKNFMELLTNQEAQQWVSGWRLNADSVLWGGHKVFMVKPEEPFQPVKEATQL [T176Q],0.072,–,0.0785,0.0753,–,0.0412,0.0763,–,–,0.0515
MGESLFKGPRDYNPISSSICHLTNESDGHTTSLYGIGFGPFIITNKHLFRRNNGTLVVQSLHGVFKVKDTTTLQQHLVDGRDMIIIRMPKDFPPFPQKLKFREPQREERICLVTTNFQTKSMSSMVSDTSCTFPSGDGIFWKHWIQTKDGQCGSPLVSTRDGFIVGIHSASNFTNTMNYFTSVPKNFMELLTNQEAQQWVSGWRLNADSVLWGGHKVFMVKPEEPFQPVKEATQL [N177M],0.114,0.0768,0.118,0.0836,0.0881,–,0.101,0.127,–,–
MGESLFKGPRDYNPISSSICHLTNESDGHTTSLYGIGFGPFIITNKHLFRRNNGTLVVQSLHGVFKVKDTTTLQQHLVDGRDMIIIRMPKDFPPFPQKLKFREPQREERICLVTTNFQTKSMSSMVSDTSCTFPSGDGIFWKHWIQTKDGQCGSPLVSTRDGFIVGIHSASNFTNTQNYFTSVPKNFMELLTNQEAQQWVSGWRLNADSVLWGGHKVFMVKPEEPFQPVKEATQL [N177Q],0.0931,–,0.123,–,0.0653,0.0544,–,–,–,0.0604

# Same assay, conditions: temperature: 34 °C; time window: 0-4 h after rhamnose induction
Variant,area with substrate ENLYFQG,area with substrate ENLYFQH,area with substrate ENLYFQM,area with substrate ENLYFQR,area with substrate ENLYFQW,area with substrate ENLYFQI,area with substrate ENLYFQP,area with substrate ENLYFQV,area with substrate ENLYFQQ
MGESLFKGPRDYNPISSSICHLTNESDGHTTSLYGIGFGPFIITNKHLFRRNNGTLVVQSLHGVFKVKDTTTLQQHLVDGRDMIIIRMPKDFPPFPQKLKFREPQREERICLVTTNFQTKSMSSMVSDTSCTFPSGDGIFWKHWIQTKDGQCGSPLVSTRDGFIVGIHSAYNFTNTNNYFTSVPKNFMELLTNQEAQQWVSGWRLNADSVLWGGHKVFMVKPEEPFQPVKEATQL [S171Y],0.0659,0.0773,0.0541,0.0522,0.0354,–,–,–,–
MGESLFKGPRDYNPISSSICHLTNESDGHTTSLYGIGFGPFIITNKHLFRRNNGTLVVQSLHGVFKVKDTTTLQQHLVDGRDMIIIRMPKDFPPFPQKLKFREPQREERICLVTTNFQTKSMSSMVSDTSCTFPSGDGIFWKHWIQTKDGQCGSPLVSTRDGFIVGIHSASHFTNTNNYFTSVPKNFMELLTNQEAQQWVSGWRLNADSVLWGGHKVFMVKPEEPFQPVKEATQL [N172H],0.0618,–,–,–,0.0032,0.0079,–,–,–
MGESLFKGPRDYNPISSSICHLTNESDGHTTSLYGIGFGPFIITNKHLFRRNNGTLVVQSLHGVFKVKDTTTLQQHLVDGRDMIIIRMPKDFPPFPQKLKFREPQREERICLVTTNFQTKSMSSMVSDTSCTFPSGDGIFWKHWIQTKDGQCGSPLVSTRDGFIVGIHSASRFTNTNNYFTSVPKNFMELLTNQEAQQWVSGWRLNADSVLWGGHKVFMVKPEEPFQPVKEATQL [N172R],–,–,0.0725,–,0.0563,0.0444,0.0642,0.0716,–
MGESLFKGPRDYNPISSSICHLTNESDGHTTSLYGIGFGPFIITNKHLFRRNNGTLVVQSLHGVFKVKDTTTLQQHLVDGRDMIIIRMPKDFPPFPQKLKFREPQREERICLVTTNFQTKSMSSMVSDTSCTFPSGDGIFWKHWIQTKDGQCGSPLVSTRDGFIVGIHSASNFGNTNNYFTSVPKNFMELLTNQEAQQWVSGWRLNADSVLWGGHKVFMVKPEEPFQPVKEATQL [T174G],0.0687,–,0.0692,0.0703,0.0722,0.0584,0.0557,–,0.0675
MGESLFKGPRDYNPISSSICHLTNESDGHTTSLYGIGFGPFIITNKHLFRRNNGTLVVQSLHGVFKVKDTTTLQQHLVDGRDMIIIRMPKDFPPFPQKLKFREPQREERICLVTTNFQTKSMSSMVSDTSCTFPSGDGIFWKHWIQTKDGQCGSPLVSTRDGFIVGIHSASNFTNQNNYFTSVPKNFMELLTNQEAQQWVSGWRLNADSVLWGGHKVFMVKPEEPFQPVKEATQL [T176Q],0.0715,–,0.0705,–,–,0.054,0.0623,–,–
MGESLFKGPRDYNPISSSICHLTNESDGHTTSLYGIGFGPFIITNKHLFRRNNGTLVVQSLHGVFKVKDTTTLQQHLVDGRDMIIIRMPKDFPPFPQKLKFREPQREERICLVTTNFQTKSMSSMVSDTSCTFPSGDGIFWKHWIQTKDGQCGSPLVSTRDGFIVGIHSASNFTNTMNYFTSVPKNFMELLTNQEAQQWVSGWRLNADSVLWGGHKVFMVKPEEPFQPVKEATQL [N177M],0.156,0.0886,0.0851,–,0.0632,0.0607,0.0578,–,–
MGESLFKGPRDYNPISSSICHLTNESDGHTTSLYGIGFGPFIITNKHLFRRNNGTLVVQSLHGVFKVKDTTTLQQHLVDGRDMIIIRMPKDFPPFPQKLKFREPQREERICLVTTNFQTKSMSSMVSDTSCTFPSGDGIFWKHWIQTKDGQCGSPLVSTRDGFIVGIHSASNFTNTQNYFTSVPKNFMELLTNQEAQQWVSGWRLNADSVLWGGHKVFMVKPEEPFQPVKEATQL [N177Q],0.0985,–,–,–,–,–,–,–,–
